These results are taken from PubChem BioAssay AID1240 (Sanford-Burnham Center for Chemical Genomics, 2008).

SMILES strings stand for the structures. Out of some 50,000 compounds screened, about 800 (1.6%) showed an effect of 50% or more. This is one part of the list.

For the test, the target named is Bcl-2-like protein 10 (Homo sapiens) (UniProt Q9HD36). Nature of the test: TR3 peptide-Bcl-B binding displacers, biochemical primary FP assay, phenotype converters (AID 1240).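 Also: 0% = Bcl-B with tracer peptide and DMSO and 100% = tracer peptide lacking Bcl-B.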 The conditions noted are these: GST-Bcl-B / FITC-TR3 peptide fluorescence polarization; stronger effect = higher value; compound at 3.75 mg/L.
Chain of UniProt Q9HD36 (Q9HD36 whole entry, looked up): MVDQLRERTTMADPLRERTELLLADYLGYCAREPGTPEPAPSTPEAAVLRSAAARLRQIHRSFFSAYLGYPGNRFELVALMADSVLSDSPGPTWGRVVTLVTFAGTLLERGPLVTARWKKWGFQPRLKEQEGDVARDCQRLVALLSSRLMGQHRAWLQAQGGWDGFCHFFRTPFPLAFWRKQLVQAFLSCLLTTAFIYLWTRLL
As for `CC1(C)CC(NC(=O)C(=O)Nc2ccc(Cl)cc2)CC(C)(C)N1`, the displacement amounted to 1%. Turning to `O=[N+]([O-])c1cccc(S(=O)(=O)NCc2ccccc2Cl)c1`, the displacement was 7.9%.

Take `CC(=O)NC12CC3CCC(CC(C3)C1)C2`: the displacement was 10.9%. Regarding `NC(=S)NN=C1c2cc(S(=O)(=O)NCc3ccco3)ccc2-c2ccc(S(=O)(=O)NCc3ccco3)cc21`, the displacement is -11.2%. To `CCCCNC(=O)/C(=C/c1ccccc1)NC(=O)c1ccc(OC)cc1` belongs 10.3%; to `C/C(=N\Nc1nc(C)cc(C)n1)c1ccccc1O`, 0.1%. `CCOC(=O)c1c(CN(CCO)CCO)n(C)c2c1cc(OC(C)=O)c1c2c(-c2ccccc2)nn1-c1ccccc1`: the displacement came to 10.8%. To `CC1CCc2c(sc(NC(=O)C(C(C)C)N3C(=O)c4ccccc4C3=O)c2C(N)=O)C1` (stereo not given) belongs -11.9%. For the molecule `CCOC(=O)c1c[nH]c2c(Cl)ccc(Cl)c2c1=O`, the displacement was -2.4%. To `O=C(/C=C/c1cc2c(cc1[N+](=O)[O-])OCCO2)c1c(-c2ccccc2)c2cc(Cl)ccc2[nH]c1=O` belongs 31.3%; to `O=C(Nc1ccc(F)cc1)C1C(c2ccccc2)C1(Cl)Cl` (stereo not given), 1.9%. To `Cc1cc(C)c(NC(=O)C2CCCN2Cc2ccccc2)c(C)c1` (stereo not given) belongs 0.7%. As for `COc1ccccc1Nc1nc(C)c([N+](=O)[O-])c(Nc2ccccc2)n1`, the displacement was -5.3%. Turning to `COc1ccc(C(=O)N2CCN(Cc3ccc(C)cc3)CC2)cc1OC`, the displacement was -21.7%.

For `COc1cccc(/C=C(\C#N)c2nc(-c3ccc(Br)cc3)cs2)c1`, the displacement is -7.3%. To `Cc1ccc(C2Nc3cccc4cccc(c34)N2)cc1` belongs 15.4%.

For `CCOc1ccccc1NC(=O)c1ccc(N(C)S(=O)(=O)c2ccccc2)cc1`, the displacement stood at 6.5%. To `Cc1nc2c(CN(C)C)c(O)ccc2[nH]1` belongs -9.7%.

For `COc1ccc(C2(CNC(=O)CC#N)CCCC2)cc1OC`, the displacement amounted to 7.8%. To `COc1cccc(C(=O)N2CCN(C(=O)c3cccs3)CC2)c1` belongs -2.6%; to `Cc1ccccc1C(=O)Nc1cccc(NC(=O)c2ccc(Cl)c([N+](=O)[O-])c2)c1`, 8%; to `COc1ccc(NC(=O)c2ccccc2Cl)cc1OC`, -8%. To `COc1cc(OC)c(NC(=O)c2cc(C(F)(F)F)cc(C(F)(F)F)c2)cc1Cl` belongs -11.9%; to `C=CCOc1c(I)cc(/C=C2/C(=O)NC(=O)N(c3ccc(OC)cc3)C2=O)cc1OC`, 12.6%; to `COc1ccc(CN=CC2=C(O)CNC2=O)cc1`, 10.9%.

Turning to `Cc1ccc2nc(SCc3nc4ccccc4[nH]3)[nH]c2c1`, the displacement is -46.4%. Regarding `O=C(CCc1ccccc1)Nc1ccc(OCc2ccccc2)cc1`, the displacement is -5.3%. To `Oc1ccccc1-c1cc(C(F)(F)F)[nH]n1` belongs 17.8%; to `Cc1cccc(CC2S/C(=N\N=C\c3cccc([N+](=O)[O-])c3)NC2=O)c1` (stereo not given), 8.5%; to `Cc1cc(C)cc(N=Cc2ccc(N(C)C)cc2)c1`, -7.9%.

With `C=CCOc1ccc(/C=C2\SC(=S)N(c3ccc(OC)cc3)C2=O)cc1OC`, the displacement is 6.7%. To `CCCN1CCC(=NNC(=O)c2ccc(OC)c(OC)c2)CC1` belongs -3.7%.

Turning to `Cc1ccc(C(=O)Nc2ncccn2)o1`, the displacement came out at 6.3%. To `CC(C)CNC(=O)c1cccc(NC(=O)/C=C/c2ccccc2)c1` belongs -10.4%; to `COc1cc(/C=C2/SC(=Nc3ccccc3)NC2=O)ccc1OCc1ccccc1[N+](=O)[O-]`, 7.5%.

On to `Cc1cc(=O)oc2cc(OC(=O)Cc3ccccc3)ccc12`, for which the displacement was determined as 14.4%.

On to `Cc1ccc(CNC(=O)CN2C(=O)c3ccccc3C2=O)cc1`, for which the displacement was determined as 5%. Take `COc1ccc(S(=O)(=O)N2CCN(Cc3ccccc3)CC2)cc1[N+](=O)[O-]`: the displacement was -4.1%.

As for `COc1ccc(CCNC(=O)C(Cl)(Cl)Cl)cc1`, the displacement worked out at 3.4%. To `CCn1c(CCCO)nc2ccccc21` belongs -6.8%. To `O=C(Cc1ccc(Cl)cc1)Nc1ccc2c(c1)OCO2` belongs 15%; to `O=C(Nc1ccccc1)Nc1ccc(S(=O)(=O)N2CCCCC2)cc1`, -3.3%. To `Cc1ccc(N(CC(=O)Nc2ccc(Br)cc2)S(C)(=O)=O)cc1Cl` belongs -2.3%; to `CCn1c(SCC(=O)OC)nc2sc3c(c2c1=O)CCC3`, 8.5%. On to `COc1ccc(/C=C/C(=O)Nc2nc(-c3ccc(Cl)cc3)cs2)cc1OC`, for which the displacement came to 2.2%. Turning to `CCCOC(=O)c1ccc(NC(=O)COc2ccc3ccccc3c2)cc1`, the displacement was determined as 12.1%. Turning to `CC(NC(=O)c1ccco1)C1COc2ccccc2O1` (stereo not given), the displacement came to 4.6%. To `CN(C(=O)c1cccs1)c1ccccc1C(=O)O` belongs -1.3%; to `CC1CCCN(C(=O)Cc2ccc(Cl)cc2)C1` (stereo not given), 6.5%; to `O=C(NC(=S)Nc1ccc2oc(-c3ccc(Br)cc3)nc2c1)c1ccco1`, 11.6%. To `CC(=O)Nc1nc2ccccc2n1CCCN(C)C` belongs -5.5%. To `CC1=C(C(=O)OC2CCCC2)C(c2ccc(Cl)cc2)NC(=O)N1C` (stereo not given) belongs -3.5%; to `COC(=O)c1ccc(/C=C2\C(=O)NC(=S)N(c3cccc(Br)c3)C2=O)cc1`, 13.8%; to `O=C(O)c1c(-c2ccccc2)oc2ccc(OCc3ccccc3F)cc12`, 11.7%. As to `O=C(COc1ccccc1)N1CCNCC1`, the displacement was -5.1%.

As for `O=C(Nc1ccccc1Cl)c1ccccc1[N+](=O)[O-]`, the displacement is 12.1%. Regarding `O=C(O)CC1S/C(=N/N=C/c2ccc([N+](=O)[O-])cc2)N(c2ccc(O)cc2)C1=O` (stereo not given), the displacement was found to be 13.4%. Regarding `NS(=O)(=O)c1ccc(CNC(=O)c2ccc(Cl)cc2)cc1`, the displacement is -7.2%.

Take `O=C(CCCN1C(=O)/C(=C/c2ccc(F)cc2)SC1=S)Nc1ccc(C(=O)O)cc1`: the displacement was -15.3%.

As to `CCOc1cc(C(=S)N2CCOCC2)ccc1OS(=O)(=O)c1ccc(C)cc1`, the displacement is 11.2%. With `CN1C2=NC(=O)/C(=C/c3ccc([N+](=O)[O-])o3)N2c2ccccc21`, the displacement was -7.1%.

With `CCCOP(=O)(OCCC)C(Nc1cccc(C(F)(F)F)c1)c1ccc(C)cc1` (stereo not given), the displacement was 14.3%. On to `COc1ccc(C(=O)Nc2ccccc2C(=O)NCCC(=O)Nc2ccccc2)cc1`, for which the displacement came out at 11%.

In the case of `CC1(C)Cc2ccccc2-c2nnc(-c3cccs3)n21`, the displacement is -8.6%. To `O=C(O)c1ccc(-c2cccc(OC(F)(F)F)c2)o1` belongs -0.6%. As to `O=Cc1cn(CCOc2ccc(Cl)cc2)c2ccccc12`, the displacement was -2%. On to `CC(=O)c1cc(-c2ccccc2)[nH]c1N1CCOCC1`, for which the displacement is -9.2%. To `Cc1ccc(N2C(=O)NC(=O)/C(=C/c3ccc(OCC(=O)O)cc3)C2=O)cc1` belongs -14.8%; to `COC(=O)c1ccc(C(=O)Nc2cc(Cl)ccc2Cl)cc1NC(=O)C(C)Oc1ccccc1` (stereo not given), 2.5%; to `Cc1c(NC(=O)c2nn3c(c2Cl)NC(c2ccc(Cl)cc2)CC3C(F)(F)F)c(=O)n(-c2ccccc2)n1C` (stereo not given), 9.6%.
